From the supplement of paper PMC8728848
Some of the results follow.

Tests used:
Assay in all cases: glycan array binding signal (z-score within array); higher = stronger binding
Conditions in all cases: glycan notation: IUPAC condensed, linker removed
[1] = molecular target: GlcNAc(b1-4)[GlcNAc(b1-6)]GalNAc
Summary of the method: (§1)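 Negative Z-scores can be read as non-binding. The Z-score is calculated within each array and then averaged across arrays of one protein sequence at different concentrations or buffers and across linkers. Arrays, 3228 in all, were curated from the Consortium for Functional Glycomics database and kept only where the protein sequence was available.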

[2] = molecular target: GlcNAc(b1-6)Gal(b1-4)GlcNAc
Summary of the method: as §1

[3] = molecular target: GlcNAc(b1-6)GalNAc
Summary of the method: as §1

[4] = molecular target: GlcNAc6S(b1-3)Gal(b1-4)GlcNAc
Summary of the method: as §1

[5] = molecular target: Kdn(a2-3)Gal(b1-3)GalNAc
Summary of the method: as §1

[6] = molecular target: Kdn(a2-3)Gal(b1-3)GlcNAc
Summary of the method: as §1

[7] = molecular target: Kdn(a2-3)Gal(b1-4)Glc
Summary of the method: as §1

[8] = molecular target: Kdn(a2-3)Gal(b1-4)GlcNAc
Summary of the method: as §1

[9] = molecular target: Kdn(a2-3)Gal(b1-4)[Fuc(a1-3)]GlcNAc
Summary of the method: as §1

[10] = molecular target: Kdn(a2-6)Gal(b1-4)GlcNAc
Summary of the method: as §1

[11] = molecular target: Man(a1-2)Man(a1-2)Man(a1-3)Man
Summary of the method: as §1

[12] = molecular target: Man(a1-2)Man(a1-2)Man(a1-6)[Man(a1-3)]Man
Summary of the method: as §1

[13] = molecular target: Man(a1-2)Man(a1-3)Man
Summary of the method: as §1

[14] = molecular target: Man(a1-2)Man(a1-3)[Man(a1-2)Man(a1-6)]Man
Summary of the method: as §1

[15] = molecular target: Man(a1-2)Man(a1-3)[Man(a1-2)Man(a1-6)]Man(a1-6)[Man(a1-2)Man(a1-2)Man(a1-3)]Man
Summary of the method: as §1

[16] = molecular target: Man(a1-2)Man(a1-3)[Man(a1-2)Man(a1-6)]Man(a1-6)[Man(a1-2)Man(a1-2)Man(a1-3)]Man(b1-4)GlcNAc(b1-4)GlcNAc
Summary of the method: as §1

[17] = molecular target: Man(a1-2)Man(a1-3)[Man(a1-6)]Man(a1-6)[Man(a1-2)Man(a1-3)]Man(b1-4)GlcNAc(b1-4)GlcNAc
Summary of the method: as §1

[18] = molecular target: Man(a1-2)Man(a1-6)[Man(a1-3)]Man(a1-6)[Man(a1-2)Man(a1-2)Man(a1-3)]Man
Summary of the method: as §1

[19] = molecular target: Man(a1-2)Man(a1-6)[Man(a1-3)]Man(a1-6)[Man(a1-2)Man(a1-2)Man(a1-3)]Man(b1-4)GlcNAc(b1-4)GlcNAc
Summary of the method: as §1

[20] = molecular target: Man(a1-3)[Man(a1-6)]Man
Summary of the method: as §1

[21] = molecular target: Man(a1-3)[Man(a1-6)]Man(a1-6)[Man(a1-2)Man(a1-3)]Man(b1-4)GlcNAc(b1-4)GlcNAc
Summary of the method: as §1

[22] = molecular target: Man(a1-3)[Man(a1-6)]Man(a1-6)[Man(a1-3)]Man
Summary of the method: as §1

[23] = molecular target: Man(a1-3)[Man(a1-6)]Man(a1-6)[Man(a1-3)]Man(b1-4)GlcNAc(b1-4)GlcNAc
Summary of the method: as §1

[24] = molecular target: Man(a1-3)[Man(a1-6)]Man(b1-4)GlcNAc(b1-4)GlcNAc
Summary of the method: as §1

[25] = molecular target: Man(a1-3)[Man(a1-6)]Man(b1-4)GlcNAc(b1-4)[Fuc(a1-6)]GlcNAc
Summary of the method: as §1

[26] = molecular target: Man(a1-6)Man
Summary of the method: as §1

[27] = molecular target: Man(b1-4)GlcNAc
Summary of the method: as §1

[28] = molecular target: MurNAc(b1-4)GlcNAc
Summary of the method: as §1

[29] = molecular target: Neu5Ac(a2-3)Gal
Summary of the method: as §1

[30] = molecular target: Neu5Ac(a2-3)Gal(b1-3)GalNAc
Summary of the method: as §1

[31] = molecular target: Neu5Ac(a2-3)Gal(b1-3)GalNAc(b1-3)Gal(a1-4)Gal(b1-4)Glc
Summary of the method: as §1

[32] = molecular target: Neu5Ac(a2-3)Gal(b1-3)GalNAc(b1-4)[Neu5Ac(a2-3)]Gal(b1-4)Glc
Summary of the method: as §1

[33] = molecular target: Neu5Ac(a2-3)Gal(b1-3)GalNAc(b1-4)[Neu5Ac(a2-8)Neu5Ac(a2-3)]Gal(b1-4)Glc
Summary of the method: as §1

[34] = molecular target: Neu5Ac(a2-3)Gal(b1-3)GalNAc6S
Summary of the method: as §1

[35] = molecular target: Neu5Ac(a2-3)Gal(b1-3)GlcNAc
Summary of the method: as §1

[36] = molecular target: Neu5Ac(a2-3)Gal(b1-3)GlcNAc(b1-2)Man
Summary of the method: as §1

[37] = molecular target: Neu5Ac(a2-3)Gal(b1-3)GlcNAc(b1-2)Man(a1-3)[GlcNAc(b1-4)][Neu5Ac(a2-3)Gal(b1-3)GlcNAc(b1-2)Man(a1-6)]Man(b1-4)GlcNAc(b1-4)GlcNAc
Summary of the method: as §1

[38] = molecular target: Neu5Ac(a2-3)Gal(b1-3)GlcNAc(b1-2)Man(a1-3)[Neu5Ac(a2-3)Gal(b1-3)GlcNAc(b1-2)Man(a1-6)]Man(b1-4)GlcNAc(b1-4)GlcNAc
Summary of the method: as §1

[39] = molecular target: Neu5Ac(a2-3)Gal(b1-3)GlcNAc(b1-3)Gal(b1-3)GlcNAc
Summary of the method: as §1

[40] = molecular target: Neu5Ac(a2-3)Gal(b1-3)GlcNAc(b1-3)Gal(b1-4)GlcNAc
Summary of the method: as §1

[41] = molecular target: Neu5Ac(a2-3)Gal(b1-3)GlcNAc(b1-3)GalNAc
Summary of the method: as §1

[42] = molecular target: Neu5Ac(a2-3)Gal(b1-3)GlcNAc(b1-4)Gal(b1-4)Glc
Summary of the method: as §1

[43] = molecular target: Neu5Ac(a2-3)Gal(b1-3)GlcNAc(b1-6)GalNAc
Summary of the method: as §1

[44] = molecular target: Neu5Ac(a2-3)Gal(b1-3)GlcNAc6S
Summary of the method: as §1

[45] = molecular target: Neu5Ac(a2-3)Gal(b1-3)[Fuc(a1-4)]GlcNAc
Summary of the method: as §1

B1: CaSRK1 (Capsicum annuum) (protein)
chain: MALCKIFPFAFILLSCSCYLISGQRFDYPTANLSTTWINSVSAPHSIDYTDGSRIRAILLRGTFGPRYACGFYCNGNCESYLFAIFIVQTNSASQITSPAIGFPQVVWSANRNNPVKINSTLQLTAEGDLVLRDADGTLAWSTNTAGKSVAGLSLTDEGNLALFDSKNATVWQSFDHPTDALVPGQKLVPGMKLTASVSRTNWTAGGLFALSAIDNGLVAFVESNPPQKYFEASVGGSNTSGGSNYVKYLNGSLTLFTHSADTTELILISITPASSAQYMKLESNGHLKVYEWTSRGWREVDDLLTGFRGECNYPTVCGRYGICTMGQCSCPTSSSSRTYFRPIDVRRPSLGCSEVTKLTCQNTKKHSPLEVEDVDYFAFKAGISDTDLNTCKRACLEKCSCKAAFFRSGLNSSRTRGDCYLPTEIFSIMNNEKDRTRYDSVAFIKVQV
glycan array binding signal (z-score) [1]: -0.498 | glycan array binding signal (z-score) [2]: -0.346 | glycan array binding signal (z-score) [3]: -0.338 | glycan array binding signal (z-score) [4]: 0.214 | glycan array binding signal (z-score) [5]: 0.159 | glycan array binding signal (z-score) [6]: -0.595 | glycan array binding signal (z-score) [7]: 0.342 | glycan array binding signal (z-score) [8]: -0.527 | glycan array binding signal (z-score) [9]: 0.155 | glycan array binding signal (z-score) [10]: -0.241 | glycan array binding signal (z-score) [11]: -0.147 | glycan array binding signal (z-score) [12]: -0.297 | glycan array binding signal (z-score) [13]: -0.29 | glycan array binding signal (z-score) [14]: -0.519 | glycan array binding signal (z-score) [15]: -0.515 | glycan array binding signal (z-score) [16]: -0.033 | glycan array binding signal (z-score) [17]: -0.406 | glycan array binding signal (z-score) [18]: -0.436 | glycan array binding signal (z-score) [19]: 0.271 | glycan array binding signal (z-score) [20]: 0.116 | glycan array binding signal (z-score) [21]: -0.258 | glycan array binding signal (z-score) [22]: -0.303 | glycan array binding signal (z-score) [23]: -0.434 | glycan array binding signal (z-score) [24]: -0.191 | glycan array binding signal (z-score) [25]: -0.531 | glycan array binding signal (z-score) [26]: 1.5 | glycan array binding signal (z-score) [27]: 0.041 | glycan array binding signal (z-score) [28]: -0.305 | glycan array binding signal (z-score) [29]: 0.157 | glycan array binding signal (z-score) [30]: -0.512 | glycan array binding signal (z-score) [31]: -0.324 | glycan array binding signal (z-score) [32]: 0.791 | glycan array binding signal (z-score) [33]: -0.39 | glycan array binding signal (z-score) [34]: -0.096 | glycan array binding signal (z-score) [35]: -0.491 | glycan array binding signal (z-score) [36]: -0.223 | glycan array binding signal (z-score) [37]: -0.549 | glycan array binding signal (z-score) [38]: 0.342 | glycan array binding signal (z-score) [39]: -0.475 | glycan array binding signal (z-score) [40]: -0.552 | glycan array binding signal (z-score) [41]: -0.354 | glycan array binding signal (z-score) [42]: 0.467 | glycan array binding signal (z-score) [43]: -0.414 | glycan array binding signal (z-score) [44]: -0.162 | glycan array binding signal (z-score) [45]: -0.323
